Test results taken from PubChem BioAssay AID488969 (Vanderbilt High Throughput Screening Facility, 2010).
In all, about 110,000 compounds were measured (“z-score”: median about -0.1, highest 2% from about 2 on). The list shows a part of the results.

The compounds below were run against Metabotropic glutamate receptor 8 (Rattus norvegicus) (UniProt P70579) (assay: mGluR8 Gi/Go-coupled signaling modulation – cell-based, rat, thallium flux, HTS, primary screen (AID 488969)). Details: HEK293 rat mGluR8, GIRK (G protein-gated inwardly rectifying potassium channel) thallium flux, FluoZin2; at 10 µM; stronger effect = higher value; submaximal glutamate (EC20) added with thallium.
Chain of UniProt P70579 (P70579 whole entry, looked up): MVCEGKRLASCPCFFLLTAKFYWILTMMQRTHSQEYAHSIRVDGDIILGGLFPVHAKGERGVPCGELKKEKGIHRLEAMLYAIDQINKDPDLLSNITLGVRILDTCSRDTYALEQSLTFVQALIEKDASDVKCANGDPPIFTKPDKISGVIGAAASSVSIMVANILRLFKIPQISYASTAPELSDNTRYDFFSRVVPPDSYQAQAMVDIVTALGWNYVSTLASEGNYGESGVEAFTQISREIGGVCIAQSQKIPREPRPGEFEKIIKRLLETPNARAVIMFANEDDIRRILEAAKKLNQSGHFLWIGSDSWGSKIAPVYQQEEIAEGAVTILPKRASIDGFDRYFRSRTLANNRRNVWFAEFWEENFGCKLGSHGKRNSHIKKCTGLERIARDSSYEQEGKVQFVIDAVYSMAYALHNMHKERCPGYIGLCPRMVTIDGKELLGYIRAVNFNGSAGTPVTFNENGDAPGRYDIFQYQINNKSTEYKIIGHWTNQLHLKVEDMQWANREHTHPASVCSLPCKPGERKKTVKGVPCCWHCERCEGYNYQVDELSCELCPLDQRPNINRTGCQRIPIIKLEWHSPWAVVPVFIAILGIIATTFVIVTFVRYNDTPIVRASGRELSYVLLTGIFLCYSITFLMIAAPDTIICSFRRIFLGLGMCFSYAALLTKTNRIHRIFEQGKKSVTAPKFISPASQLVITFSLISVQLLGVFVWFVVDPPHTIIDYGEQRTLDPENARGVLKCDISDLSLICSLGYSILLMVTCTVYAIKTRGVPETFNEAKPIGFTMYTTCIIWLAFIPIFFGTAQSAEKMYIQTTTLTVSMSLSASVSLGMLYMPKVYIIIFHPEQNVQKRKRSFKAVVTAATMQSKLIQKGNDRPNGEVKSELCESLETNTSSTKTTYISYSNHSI
O=C(OCC(=O)N1CCOCC1)C(c1ccccc1)c1ccccc1 gave a z-score of -0.421.
CCOCCCNC(=O)N1CCOCC1 gave a z-score of -0.0637.
Compound CCS(=O)(=O)N1CCCC(C(=O)NC2CCCCC2)C1 (centres undefined) has a z-score of 0.44.
Compound Cc1ccc(Sc2ccc(N)cc2C#N)cc1 has a z-score of -0.101.
Work on Cc1cc(Nc2ccccc2)nc(NCc2ccccc2)n1 yielded a z-score of 2.34.
In the case of CC(NC(=O)CCl)c1ccc(Cl)c(Cl)c1 (centres undefined), the z-score is reported as -0.0972.
O=C(O)c1cccc(NCc2ccncc2)c1 was tested, and the z-score was 0.664.
Oc1ccc(-c2onc3ccc(Cl)cc23)cc1 was tested, and the z-score was -0.116.
CCOc1ccccc1NC(=O)Cn1c(=O)n(CCC(=O)NC2CCCC2)c(=O)c2ccccc21 gave a z-score of -0.0443.
With CC(C(=O)Nc1ccc2c(c1)OCCO2)N1CCN(C(=O)c2ccco2)CC1 (centres undefined) the z-score was 0.212.
For COc1ccc(N=Cc2cccc(C)c2O)cc1Cl, the z-score was -0.209.
O=C(Nc1ccccc1)c1cc([N+](=O)[O-])ccc1NC1CCCCC1 showed a z-score of 1.3.
O=C(CNC(=O)c1ccc(Cl)cc1Cl)NCC(=O)Nc1ccccc1N1CCOCC1 showed a z-score of -0.0598.
Compound Cc1ccc(C2C(=O)N(C3CCCC3)CC(=O)N2C2CCCCC2)cc1 (centres undefined) has a z-score of -0.426.
Cc1cccc(N2CCN(Cc3ccoc3)CC2)c1C showed a z-score of 0.264.
For CCNc1nc(NCC)nc(OCCOC(C)=O)n1, the z-score was -0.296.
Work on COc1ccccc1NC(=O)CN1CCN(C2c3ccccc3-c3ccccc32)CC1 yielded a z-score of -0.222.
In the case of CCC(C)[C@H](NC(=O)N1CCN(C)CC1)C(=O)OC (some centres undefined), the z-score is reported as -0.206.
In the case of COc1ccc(NC(=O)COC(=O)CCCc2c[nH]c3ccccc23)cc1OC, the z-score is reported as -0.22.
For COC(=O)C1=CN(CC2CCCO2)C=C(C(=O)OC)C1c1cc(OC)c(OC)c(OC)c1 (centres undefined), the z-score was -0.256.
Cc1ccc(S(=O)(=O)CCSc2nc(C)cc(C(F)(F)F)c2C#N)cc1 showed a z-score of 0.0567.
CCOC(=O)C1CCCN(C(=O)c2cn(CC)c3ccc(S(=O)(=O)N4CCCC4)cc3c2=O)C1 (centres undefined) showed a z-score of 0.63.
With CCOc1ccc(OCc2ccc(C(=O)N3CCc4ccccc4C3)o2)cc1 the z-score was -0.444.
CCOc1cc(NC(=S)Nc2cccc(OC)c2)c(OCC)cc1NC(=O)c1ccc(C)cc1 showed a z-score of -0.0972.
C=CCn1c(SCC(=O)NCC2CCCO2)nc2scc(-c3ccco3)c2c1=O (centres undefined) was tested, and the z-score was -0.148.
Cc1nc(CNS(=O)(=O)c2ccc3c(c2)OCCO3)cs1 gave a z-score of 0.138.
For COc1ccc(/C=N/NC(=O)c2ccc(N(C)S(=O)(=O)c3ccccc3)cc2)cc1OC, the z-score was 0.488.
For Cc1ccc(S(=O)(=O)NC2(C(F)(F)F)C(=O)Nc3c2c(=O)[nH]c(=O)n3-c2ccccc2)cc1 (centres undefined), the z-score was 0.198.
Cc1ccc(-c2nn(C)c(=O)c3ccccc23)cc1CNC(=O)c1ccco1 was tested, and the z-score was -1.48.
Work on NC1=NC(=O)CC(C(=O)NCCc2ccccc2)S1 (centres undefined) yielded a z-score of 0.323.
In the case of CCN(CC)CCn1c(NCc2ccco2)nc2ccccc21, the z-score is reported as -0.0164.
Compound CN(C)c1ccc(/C=C2\NC(=S)N(Cc3ccccc3)C2=O)cc1 has a z-score of 0.888.
Work on CC(C)(C)OC(=O)N1CCC(c2c(C(=O)O)cnn2-c2ccccc2Cl)CC1 yielded a z-score of 0.0968.
With CC(C)(C)SCCNC(=O)Nc1ccccc1 the z-score was 0.0127.
For Clc1ccc(CNc2nc(N3CCOCC3)nc(N3CCOCC3)n2)cc1, the z-score was -0.553.
For COC(=O)CC(NC(=O)c1ccco1)c1cccc2ccccc12 (centres undefined), the z-score was -0.498.
Compound Cn1c(=O)cc(OCCCC(=O)NCCCN2CCN(Cc3ccccc3)CC2)c2ccccc21 has a z-score of -0.329.
Work on CC(=O)Nc1ccc(SCC(=O)c2cc(C)n(C)c2C)cc1 yielded a z-score of -0.0734.
With CC(=O)c1ccc(NC(=S)N2C(C)CCCC2C)cc1 (centres undefined) the z-score was -0.0872.
Work on CCOC(=O)c1cc2occc2n1CC(=O)NC1CCC(C)CC1 (centres undefined) yielded a z-score of -0.797.
Work on CN(C)S(=O)(=O)c1cccc(C(=O)NC2CCCc3ccccc32)c1 (centres undefined) yielded a z-score of -0.104.
With Cc1ccc(Sc2c([N+](=O)[O-])ncn2C)cc1 the z-score was -0.0293.
Cc1nn(C)c(C)c1/C=C(\C#N)C(N)=O gave a z-score of -0.273.
For COC(=O)c1ccccc1NC(=O)NCc1cccnc1, the z-score was 1.03.
With NC(=O)COC(=O)c1ccc(Oc2ccccc2)cc1 the z-score was 0.0036.
For O=C1C2CCCCC2C(=O)N1c1ccc(NC2CCCCC2)c([N+](=O)[O-])c1 (centres undefined), the z-score was -0.205.
CCc1ccccc1NC(=O)CC1CS(=O)(=O)CC1CC(=O)Nc1ccccc1CC (centres undefined) gave a z-score of -0.13.
O=C(O)c1cccc(N2CCCC2=O)c1 showed a z-score of -0.211.
With O=C(Nc1cccc(-c2nnn(CC(=O)N3CCc4ccccc4C3)n2)c1)C1CCC1 the z-score was -0.621.
In the case of COc1cc(NC(=O)CN2CCN(c3ccccc3O)CC2)c(C)cc1[N+](=O)[O-], the z-score is reported as -0.0254.
CCN1CCCC(NC(=O)c2cc([N+](=O)[O-])ccc2OC)C1 (centres undefined) gave a z-score of -0.00139.
In the case of COc1ccc(-c2noc(CCC(=O)N3CCN(c4cc(C)ccc4C)CC3)n2)cc1, the z-score is reported as -0.192.
O=C(NCCOc1nc(N2CCCCC2)nc(N2CCOCC2)n1)Nc1ccccc1 gave a z-score of -0.56.
With O=C(Cc1ccccc1)NCCCN1CCN(CCCNC(=O)Cc2ccccc2)CC1 the z-score was 0.0812.
